Assay results published in the RNAGym collection of RNA variant scans (doi:10.7554/elife.90254).
Read counts are not given, so values of variants with three or more changes are uncertain.

B1: OR4K15 (parent)
chain: GUUAACGGUCAUAGGCCAUGGAAACUAGGAGCACCAUUUCGCUGCCAGUGAAGAAAUGAACAAAGAAAAUCUGGGCCAGGCAGGCAUCAAAAGAAAUAGUCUUGCGCUCAACCAGAAAGUCUGUAAUCAUUUUAAGGGUA

Variants of: B1
Assay: self-cleavage, relative activity (ratio to wild type); higher = more cleavage; in vitro, sequencing; the parent is a self-cleaving ribozyme

| Variant | self-cleavage |
| --- | --- |
| A69G A92G U127C | 0.54 |
| U37C U49G A68G A116G | 0.81 |
| A56G A82G U100C U108A | 0.03 |
| G7U A11G U12C U43A A91G A116U U127C | 0.24 |
| U12C A30G A51G U57C A62U A78G A94C | 0.29 |
| A67G A69G A116G | 0.56 |
| A27G U49C U133C A134G | 0.47 |
| U9C A111G U120G | 0.04 |
| A23G A68G U103C A118G A125G | 0.03 |
| A54C A62G A89G | 0.3 |
| A27G U38C U57C A98G A134G | 0.2 |
| A82G A111G U122A | 0.01 |
| A91G G106A A129G | 0.01 |
| A24G A52G A59G U100A | 0.32 |
| A56G A94G A96U A134U A140U | 1.47 |
| A18C A55G A63G | 0.82 |
| A63G A67G A96U | 2.34 |
| U102C A118G U122G A126G | 2.78 |
| A94G A129U A135G | 0.95 |
| G41A U43C A54G | 2.37 |
| A24C U43A A52G A66G U102C | 2.32 |
| U12C A55U A118G | 0.69 |
| U43A A54G A78U | 0.65 |
| A11U A47G U72C | 0.21 |

| Variant | self-cleavage |
| --- | --- |
| A30G A55U U72A | 0.18 |
| U43C A62G C128A | 1.22 |
| A64G A90G A96G A135G | 1.06 |
| U26A U57C A66U A134G | 1.02 |
| A13U A67G U70A A82U | 0.14 |
| A24G A91G C105A | 0.03 |
| A56G A64G U108C | 0.04 |
| G21A U38C A51U | 1.55 |
| U37C A67G U108C | 0.01 |
| U37C A66G A96U | 1.55 |
| U57G U122C A126U | 0.61 |
| A54G A64G A67G | 1.09 |
| A5G U37C C42A A129G | 0.61 |
| A18G U57G A66U | 0.7 |
| U38C A114G A125G | 0.09 |
| U19A C61U G80U | 0.11 |
| A5G A52U A86G | 1.28 |
| U19C A23G A51G | 1.18 |
| A51G A82G A86U A96G A114G | 0.22 |
| A78G A92G U130C | 0.13 |
| G20A A23G A54G A68U U70C A114G | 0.14 |
| A92G A117G U122A | 2.19 |
| A63G G65U U97A U103C | 1.43 |
| C35U A67G A78G | 0.09 |

| Variant | self-cleavage |
| --- | --- |
| A11G A60G A68G | 0.88 |
| U26C A62G A67G U72A A90C A92G A117G | 0.12 |
| A89G A90G U127C | 0.37 |
| A23G U43C A94U | 2.19 |
| U37A U38C A82U A118G U133A | 0.18 |
| A22U U124C A135U | 0.72 |
| U12G A27G U37A A89G G104A A118G | 0.04 |
| A63G A96G C121U | 1.58 |
| U19C A68G A89G U130C | 1.11 |
| A5U G7A U39A | 1.1 |
| U9A A69U A82G | 1.01 |
| A89U U97A U108C | 0.01 |
| A22G U37G A92G | 0.8 |
| A11G A30G G73A A117U U132A | 0.04 |
| C17A A55G U108A U120C | 0.01 |
| C42G U49C A51U A86U | 1.15 |
| A54G A78G A111G U130C | 0 |
| U39C A68G A69G A95C | 0.71 |
| U39A A69G U70C | 0.73 |
| A5G A30U U108C A116G U122A | 0.02 |
| U43C A59G A89G | 1.85 |
| A55G A66G A78G A116G | 0.2 |
| U19A A30G A56G U127G U131A | 0.96 |
| A51G U70C U103C | 0.1 |

| Variant | self-cleavage |
| --- | --- |
| U9C A22G U132G | 1.87 |
| U2C A23G U39G A96G | 0.33 |
| A36G A66G A92G U100C A110G A129G | 0.17 |
| U39A A95C A98G A129G | 0.99 |
| A54G A62G U130C | 1.31 |
| A91G U97C U124A A126G | 0.36 |
| A59G A78G U108C A116G U120C | 0 |
| C6U A62U U100C | 1.33 |
| A67G A92C A98G | 0.18 |
| A68G U97C U108C A135U | 0 |
| A24G A118G U122C A126G U130C | 0.21 |
| A5G G44A A92G A126G | 0.51 |
| U39A G50U A126G | 0.96 |
| U19C A68U A91G U102C | 1.46 |
| U2A A11U U39C U43C A56G A91G A116G | 0.27 |
| G15A A22G G80A C112U | 0.01 |
| A23U U38C A64G | 1.27 |
| U9C A54G A92G | 1.63 |
| A63G A114U U122A | 0 |
| A59G A60G U72G | 0.37 |
| A51G A60G A68G A78U | 0.47 |
| A23G A47G A62G A118G A126G U131C | 0.14 |
| A23G A55G C88U U102C | 1.43 |
| A5G A51G A60G U120C | 0.93 |

| Variant | self-cleavage |
| --- | --- |
| U2C U19A C42U A51G A52U | 0.71 |
| U2G A55G A95G | 1.48 |
| A23G A33G A111G | 0.06 |
| A18G A52G A64G | 1.44 |
| A51U A66G A68U | 1.35 |
| U2C G14A A54G A111U U127G | 0.11 |
| A66G A68G C113U A118U | 0.06 |
| A51G A67G A118G | 2.6 |
| A30G U38C U122C | 0.87 |
| A55G U102C A111G U133C | 0.01 |
| A22G A51G U132G | 1.73 |
| A54G A56G U103C | 0.86 |
| G7U U26C U43A U132C | 1.9 |
| U49C A52G A129U | 0.83 |
| A52U G65A A68G A78U U100C | 0.61 |
| A55G U102C A135U | 1.66 |
| A56G U102C U103C U132C | 0.11 |
| A54G A68G A90G | 1.24 |
| A24G G44A A59U U100C | 2.67 |
| A47G G65A A116G | 0.15 |
| A54G C105U U130C | 0.03 |
| A62G A95G U133C | 1.59 |
| U43A A52G A86G | 1.46 |
| U49C A64G A92U A117G | 1.9 |

| Variant | self-cleavage |
| --- | --- |
| A22G U39C U103C A110G | 0.23 |
| A5G A52G A78G A118G | 0.31 |
| U2C A66U A67G U102C A126G | 1.31 |
| A54U A67C A110C A117G | 0.42 |
| U43A A89U A92G A135U | 1.59 |
| U49C U72G U127C | 0.19 |
| U2A A13U U57C | 1.14 |
| G84A A118G A129G | 0.7 |
| A11G C76U A86G | 0.1 |
| A30G A60G A69G | 1.43 |
| G8A A18G A89U A125U | 1.41 |
| G29A U57C A90G A110G | 0.06 |
| U39C A96U U122A | 1.2 |
| U9C A33U A52G A90G | 1.36 |
| A36G A95G U103C U124C | 1.34 |
| A60G A63G A91G U100C | 2.26 |
| U12A A51G A95G | 1.45 |
| U19A A47G A59U A68G | 0.93 |
| A23U C32A A54G C61A A98G U102A | 0.05 |
| U3C A22U A55C A118G | 0.91 |
| A33G A66G A116G | 0.72 |
| A30G A62G A96G U132C | 1.29 |
| A54G G93U U131C | 2 |
| G21A U87A A114G G137U | 0.57 |

| Variant | self-cleavage |
| --- | --- |
| A22G A67G U120C | 0.56 |
| A5G A18G A91G | 1.1 |
| A24U A47U A59G | 0.79 |
| U9C A22G A36G A54G A111G | 0.08 |
| A11G A47U U49G U72C A116G A135G | 0.06 |
| U70C U127A U132C | 1.07 |
| A67G U87C U127C | 0.7 |
| A24G A56G U108C | 0.03 |
| A18G A23G C88A | 0.65 |
| A64G A98U C101A | 0.3 |
| G50A A51U U72C A96G U103G A110G A118G | 0.03 |
| U39C A92U A140G | 2.04 |
| A22G A33U A36G | 0.72 |
| U2C A22G G138A | 0.65 |
| A22G U38C A59G A94G | 1.41 |
| U19A U38C U49C | 1.83 |
| A63G U70C A94G A135C | 0.53 |
| A55G A95G U122C | 1.3 |
| A30G A82G U131C | 0.37 |
| U9A U57C A66G A91G U139A | 0.48 |
| A59U A68G A94G U122C | 0.29 |
| A11U A56G A126G | 0.87 |
| A33U U39C A82U | 0.23 |
